This is an account of results in ChEMBL document CHEMBL4888484, “Replenishing the malaria drug discovery pipeline: Screening and hit evaluation of the MMV Hit Generation Library 1 (HGL1) against asexual blood stage Plasmodium falciparum ,using a nano luciferase reporter read-out” (2022).

The whole screen tested about 150,000 compounds, of which about 540 (0.36%) showed an effect of 50% or more. Some of the results follow.

In this test the test system is Plasmodium falciparum. As to the kind of experiment: Primary screen in NF54 nanoGlo assay, in single point, at 2uM, 72h; a lower Z score goes with more inhibition. Type of test: functional, Erythrocyte. The settings on record: timepoint 72 hour.
For orientation: % Inhibition means the relative decrease from the control value, in per cent. On to `CC(C)(C)OC(=O)NCC(C)(C)c1nc(-c2ccncc2)no1`, for which the “% Inhibition” value was determined as 12% and the Z score is -1.61.

Consider `CN1CCN([C@H]2COC[C@@H]2NC(=O)[C@H]2CC[C@@H](O)CC2)CC1`, for which the “% Inhibition” value is on record as -10% and the Z score amounted to 1.22.

In the case of `CC(C)CCNC(=O)C(=Cc1ccccc1OCC#N)C(=O)NCCC(C)C`, the “% Inhibition” value was determined as 1% and the Z score is -0.18.

As to `O=C(CC1Cc2ccccc2C1)NCCc1noc([C@@H]2CCCO2)n1`, the “% Inhibition” value is recorded as -3% and the Z score was found to be 0.63.

Consider `CC(NCCOc1cccc(C#N)c1)C1CCCOC1` (stereo unspecified), for which the “% Inhibition” value is -11% and the Z score amounted to 1.22.

As for `CCNC(=O)c1cc(NS(=O)(=O)c2ccc(C(C)C)cc2)cnc1N1CCNCC1`, the “% Inhibition” value is reported as 3% and the Z score is -0.45.

In the case of `Cc1ccc(-c2ocnc2C(=O)Nc2ccc(F)cc2F)s1`, the “% Inhibition” value is 0% and the Z score worked out at 0.05.

`COc1cc(NC(=O)CCc2c(-c3ccc(F)cc3)nc3ccccn23)cc(OC)c1`: the “% Inhibition” value was -1% and the Z score worked out at 0.08.

Take `N#CC1(C(=O)NCC2(O)CCCCCC2)CCCCC1`: the “% Inhibition” value was found to be 5% and the Z score was -0.86.

Consider `Cc1cccc(-n2ncnc2C[C@H](C)n2cccn2)n1`, for which the “% Inhibition” value is on record as -18% and the Z score was 1.9.

In the case of `O=C1CCCCN1Cc1nc(Cc2ccc(F)c(Br)c2)no1`, the “% Inhibition” value is -9% and the Z score is 1.81.

Turning to `CCCS(=O)(=O)N1CC(=O)N(c2cc(C)cc(C)c2)[C@](C)(C(=O)NC2CCCCCC2)C1`, the “% Inhibition” value is -4% and the Z score came out at 0.5.

Take `CC[C@](O)(CCCO)CNC(=O)c1nc(C)c[nH]1`: the “% Inhibition” value is given as -2% and the Z score came to 0.49.

In the case of `COc1cc(C(=O)N(C)Cc2ccnc(C)c2)ccn1`, the “% Inhibition” value was -8% and the Z score stood at 1.45.

On to `O=c1ccn(Cc2nc3ccccc3o2)c2ccsc12`, for which the “% Inhibition” value is 2% and the Z score is -0.21.

For `CCOc1ccc(CNC(=O)c2ccc3c(c2)N(S(C)(=O)=O)CC3)cc1OC`, the “% Inhibition” value was -6% and the Z score was found to be 0.73.

With `CC(=O)N[C@H]1C[C@@H](c2c(C)nn(-c3ccccc3)c2C)O[C@@H](C(C)(C)C)C1`, the “% Inhibition” value is given as -11% and the Z score was determined as 1.4.

Turning to `Cc1ccc2ccccc2c1NC(=O)N[C@@]1(C)CCOC1`, the “% Inhibition” value is on record as -10% and the Z score is 1.97.

As to `C[n+]1ccccc1/C=C/c1c[nH]c2ccccc12`, the “% Inhibition” value is 91% and the Z score was -8.06.

In the case of `O=C(OC1(C2CC2)CC1)c1coc(-c2ccccc2)n1`, the “% Inhibition” value is given as -4% and the Z score amounted to 0.59.

Turning to `Cc1ncc(NC(=O)N2CCC3CCC(C2)S3(=O)=O)c(C2CC2)n1` (stereo unspecified), the “% Inhibition” value is -9% and the Z score is 1.56.

For the compound `O=C(NCCOc1ccccc1)c1cc2n(n1)CCN(Cc1ccc(Cl)cc1)C2=O`, the “% Inhibition” value was found to be 2% and the Z score is given as -0.24.

`O=C(c1cccc(NS(=O)(=O)c2cc(Cl)ccc2Cl)c1)N1CCC=C(F)C1`: the “% Inhibition” value turned out to be 6% and the Z score is -0.72.

In the case of `COc1ccc(-c2cnccc2N)c(-n2nc(C)cc2C)c1`, the “% Inhibition” value was determined as 0% and the Z score came out at 0.04.

In the case of `Cc1ccccc1-c1nc2[nH]c(CN3CCOCC3)cc(=O)n2n1`, the “% Inhibition” value was -1% and the Z score is 0.1.

Consider `CN1CCCN(Cc2noc(C3CC3)n2)c2cc(F)ccc21`, for which the “% Inhibition” value was -3% and the Z score was 0.45.

As to `Cc1ccc2c(c1)CN(Cc1cccc(O)c1)C[C@@H](c1ccsc1)O2`, the “% Inhibition” value came out at 8% and the Z score is -1.16.

On to `Cc1ccc(-c2csc(NC(=O)[C@@H](c3ccccc3)N3CCC(C)CC3)n2)cc1`, for which the “% Inhibition” value is reported as -14% and the Z score is 2.61.

On to `CCCN(C(=O)c1cc2c(=O)n(C)c3ccccc3n2n1)c1cccc(C)c1`, for which the “% Inhibition” value is given as -15% and the Z score is recorded as 1.82.

For the compound `O=C(NC1CCCCC1)c1ccc(N2C(=O)CCS2(=O)=O)cc1Cl`, the “% Inhibition” value is recorded as -11% and the Z score is listed as 1.41.

Regarding `CC1(C)CN(C[C@H](O)COCc2ccccc2)CCCO1`, the “% Inhibition” value is listed as -6% and the Z score is 0.72.

As to `COc1ccccc1CC(=O)NCC1CCOCC1`, the “% Inhibition” value is recorded as 0% and the Z score stood at 0.03.

As for `COc1ccc(-c2nn(-c3cc(C)ccc3C)c(OC(C)=O)c2-c2ccc(NC(=O)c3ccccc3)cc2)cc1`, the “% Inhibition” value stood at 0% and the Z score was -0.06.

For the compound `Cc1cc(=O)c(C(=O)N2CCOc3ccccc3[C@@H]2C)c[nH]1`, the “% Inhibition” value was -2% and the Z score is 0.3.

Turning to `CO[C@H]1COC[C@H]1S(=O)(=O)NCc1cccc2nsnc12`, the “% Inhibition” value is -4% and the Z score stood at 0.52.

`O=C(NCCCN1CCOCC1)c1c2c(nc3ccccc13)C(=O)N(C1CCCCC1)C2`: the “% Inhibition” value is recorded as -17% and the Z score is recorded as 1.84.

For `Cc1nnsc1C(=O)N(C)CC[C@H]1CCCO1`, the “% Inhibition” value was -12% and the Z score came out at 2.26.

In the case of `Cc1n[nH]c(C)c1CN1CCC[C@H](CNC(=O)NC2CCCC2)C1`, the “% Inhibition” value is listed as 2% and the Z score is -0.2.

As to `NC(=O)C1(CC2CC2)CCN(Cc2ccncc2F)CC1`, the “% Inhibition” value is 0% and the Z score turned out to be 0.05.

For `c1ccc(C2CN(c3ncnc4[nH]cnc34)C2)nc1`, the “% Inhibition” value is recorded as -3% and the Z score was 0.45.

Turning to `Cc1ccc(NC(=O)Cn2nc3c(N4CC(C)CC(C)C4)nccn3c2=O)cc1` (stereo unspecified), the “% Inhibition” value is given as -9% and the Z score was found to be 1.42.

As for `CO[C@@H](C)C(=O)Nc1c(C(O)(C(F)(F)F)C(F)(F)F)cnn1C(C)C`, the “% Inhibition” value stood at 5% and the Z score was -0.65.

In the case of `CCn1cc(NC(=O)NCCN2CC[C@H](c3ccccc3C)C2)nn1`, the “% Inhibition” value was determined as 3% and the Z score was -0.48.
